Target: T1, GST tagged ANK domain of Shank3 (residues 148-345) (mouse, UniProt Q4ACU6 148-345)
T1 sequence (looked up): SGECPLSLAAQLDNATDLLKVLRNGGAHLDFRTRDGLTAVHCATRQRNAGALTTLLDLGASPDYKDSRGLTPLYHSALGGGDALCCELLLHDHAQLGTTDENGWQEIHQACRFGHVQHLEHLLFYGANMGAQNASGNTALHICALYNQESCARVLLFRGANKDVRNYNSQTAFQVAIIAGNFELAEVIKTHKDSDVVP
Assay: pull-down

binding result: binds
B1: His6 tagged SOAR domain of STIM1 ([…]) (domain or fragment)
chain: not shown

Reference: paper PMC10755590 (Redox Biology, 2023)
